# Data from the supplement of paper PMC3334620.
# Over roughly 33,000 sequences, “E-score (-0.5 to 0.5)” has its median near -0.017; the highest 2% begin near 0.3. Some of the results follow.
# Target: T1, Sut1 (UniProt P53032)
# T1 sequence: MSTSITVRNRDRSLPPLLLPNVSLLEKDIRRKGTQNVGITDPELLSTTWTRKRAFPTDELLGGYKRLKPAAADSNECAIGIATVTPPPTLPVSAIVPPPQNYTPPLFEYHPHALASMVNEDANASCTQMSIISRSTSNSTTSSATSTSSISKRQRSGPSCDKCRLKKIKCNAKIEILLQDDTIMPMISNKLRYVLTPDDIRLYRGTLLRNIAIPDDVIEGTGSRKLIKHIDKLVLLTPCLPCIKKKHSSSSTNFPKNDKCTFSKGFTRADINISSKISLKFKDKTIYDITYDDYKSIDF
# Assay: PBM E-score (8-mer binding enrichment) (E-score (-0.5 to 0.5)); higher = stronger / more preferred TF binding; most listed sequences are background and not binding sites
# Conditions: protein concentration: 200 nM; construct: GST-full length
# In short: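 E-scores (a modified Wilcoxon-Mann-Whitney statistic) were assigned by the Universal PBM Analysis Suite to every ungapped eight-base word pooled with its reverse complement. The input came from universal all-10-mer Agilent arrays made double-stranded by primer extension and probed with GST-tagged yeast transcription factors at about 100-200 nM. Fluorescent anti-GST detected bound protein, and masliner normalised the scans.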
row,Sequence,PBM E-score
1,GATAGATC,-0.0376
2,AACCACGT,-0.105
3,ACTCCTGA,-0.0782
4,TACCTGCA,-0.0977
5,ACCCCGCT,0.107
6,CACTCGGA,0.266
7,GACGCGTA,-0.0416
8,GCTGATTA,0.0833
9,AGAAACGG,0.0547
10,CATACTAC,-0.00109
11,GGTAACAA,0.28
12,AGTACACG,-0.0194
13,AAAATTCT,0.176
14,GAAATCAC,0.185
15,CGGGGATC,0.113
16,CTGTTCCC,-0.254
17,CAGCTCGA,-0.115
18,AAGTTGTC,0.0732
19,AGTCGCCG,0.00025
20,AAGTTGTG,-0.0718
21,CACACGAC,-0.182
22,AACAAATA,0.201
23,ATTACACG,-0.00445
24,AGGCTTAC,0.138

row,Sequence,PBM E-score
1,AAAAACGT,0.0839
2,CGGCATAC,0.056
3,CCGGACTA,0.48
4,TCCCACGA,-0.0703
5,GCTAGGTA,-0.0966
6,AGGGTAAG,-0.165
7,AGATGAAT,-0.0353
8,TAAACGCA,0.0594
9,CTCTTTAA,0.176
10,ATAACTCA,0.117
11,GAACGTAC,-0.0884
12,TCAATTAA,0.231
13,GGGCATAA,-0.0121
14,ACTCTTGA,-0.111
15,ACCACATA,-0.0101
16,GTGATCTA,0.163
17,CATACGTA,0.16
18,ACGCATCG,-0.036
19,AGGCTGAT,-0.228
20,GCTCCCCC,-0.444
21,CCAAAAAA,0.247
22,GAACTCTA,-0.022
23,CGTTGGGC,-0.333
24,GGAGCGAC,0.0205

row,Sequence,PBM E-score
1,CATCGTTC,-0.0484
2,AACGTCAG,-0.202
3,AGCCGCAC,-0.171
4,AACGCTGT,-0.0573
5,ATTAGGGC,-0.0952
6,AATATCCC,-0.0894
7,ATTGAACC,0.0875
8,CAAATGCG,0.13
9,ATTCCTTG,-0.175
10,TCCTACCA,-0.163
11,GCAGTTAA,-0.00443
12,GAAGGAAA,-0.0845
13,GGGTCAAC,-0.0211
14,TGAGGGCA,-0.236
15,ACATCTAC,0.216
16,GGGTTCGA,-0.0735
17,CCCTCTCG,-0.242
18,CCAGGCAC,-0.197
19,CTCATTGC,-0.0785
20,GAATTTCA,0.25
21,AGCCTCCA,-0.24
22,ATTAGATA,0.175
23,TTCGGAAA,0.252
24,CAACCAAC,-0.158

row,Sequence,PBM E-score
1,TAGCGTAA,0.0517
2,AGGACGGG,-0.232
3,CCTGACGA,-0.245
4,CGCCCTTC,-0.0609
5,CTAGCCTA,0.0691
6,GGTACAAC,0.107
7,AGTATTGC,-0.0539
8,CTCTGCGC,-0.163
9,CCCGCTAG,-0.222
10,CAGAGTTC,0.0113
11,GCTAAAAC,0.0184
12,CGCCTCAC,0.0325
13,GGTGTCAA,-0.195
14,GAACTTCA,0.0556
15,GAGATAGC,0.0275
16,AGTGCCGA,0.00087
17,CGGTATTC,0.235
18,CCAGATAG,-0.192
19,AAAGTTAT,0.281
20,GGTATGAA,0.114
21,AAGATTGC,0.0822
22,CTGCGTGA,0.0757
